# Results taken from the supplement of paper PMC8728848.
# The list shows a part of the results.
# B1: PX9961C-bth-497-22-497 (Bacteroides thetaiotaomicron) (protein)
# chain: DWLDLNTTSSVETGQAIVTLDDAQIALNGIYRLASGHSYYGDNYWYYGDCRAADVQARITKGDGKRVSPYYEYNVLASDNLNIVLPWNTVYKVIRQTNNLIQKIESGSIQSSDTKELNRIKSEALVMRGLSLFNLTRLFGMPYTNDKGASLGVPIETSPSDPTHKPSRSTVAQCYEQVVSDMSNALSGLRQETSNGYINYWAAQALLSRVYLNMGEYQKAYDAATDVIKNNGGRYQLYSYEEYPNVWGQDFQSESLFELYITLSEPSGGTGGEGAPMVYANEATVDWNNLILSEDFLNLLNEDPKDVRHCLTKESVIENNTGLPAAAMHEKVYLAKFPGKTGDDPKTNNICIIRLSEVYLNAAEAGLKKGTDIEEAQGYLNDIISRRTTDTSQQVSTETFTLDRILKERRKELVGEGEVFYDYLRNGLAIERKGSWHLETLKASNAQKIEATDLRIALPIPQSEIDANPNIQQNPR
# Experiments:
# Assay in all cases: glycan array binding signal (z-score within array); higher = stronger binding
# Conditions in all cases: glycan notation: IUPAC condensed, linker removed
# GlcNAc(b1-3)Gal(b1-4)Glc = target: GlcNAc(b1-3)Gal(b1-4)Glc
# Method in brief: (§1)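 Glycan array data were curated from 3228 arrays in the Consortium for Functional Glycomics database and kept only where the protein sequence was available. Glycan names were converted to IUPAC-condensed notation, and columns mapping to the same glycan were averaged. The binding signal is a within-array Z-score, averaged across arrays of the same protein sequence at different concentrations or buffers and across linkers. Negative Z-scores can be read as non-binding.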
# [1] = target: GlcNAc(b1-3)Gal(b1-4)GlcNAc
# Method in brief: as §1
# [2] = target: GlcNAc(b1-3)Gal(b1-4)GlcNAc(b1-2)Man(a1-3)[GlcNAc(b1-3)Gal(b1-4)GlcNAc(b1-2)Man(a1-6)]Man(b1-4)GlcNAc(b1-4)GlcNAc
# Method in brief: as §1
# [3] = target: GlcNAc(b1-3)Gal(b1-4)GlcNAc(b1-2)Man(a1-3)[GlcNAc(b1-3)Gal(b1-4)GlcNAc(b1-2)Man(a1-6)]Man(b1-4)GlcNAc(b1-4)[Fuc(a1-6)]GlcNAc
# Method in brief: as §1
# [4] = target: GlcNAc(b1-3)Gal(b1-4)GlcNAc(b1-2)[GlcNAc(b1-3)Gal(b1-4)GlcNAc(b1-6)]Man(a1-6)[GlcNAc(b1-3)Gal(b1-4)GlcNAc(b1-2)Man(a1-3)]Man(b1-4)GlcNAc(b1-4)GlcNAc
# Method in brief: as §1
# [5] = target: GlcNAc(b1-3)Gal(b1-4)GlcNAc(b1-3)Gal(b1-4)GlcNAc
# Method in brief: as §1
# [6] = target: GlcNAc(b1-3)Gal(b1-4)GlcNAc(b1-3)Gal(b1-4)GlcNAc(b1-2)Man(a1-3)[GlcNAc(b1-3)Gal(b1-4)GlcNAc(b1-3)Gal(b1-4)GlcNAc(b1-2)Man(a1-6)]Man(b1-4)GlcNAc(b1-4)GlcNAc
# Method in brief: as §1
# [7] = target: GlcNAc(b1-3)Gal(b1-4)GlcNAc(b1-3)Gal(b1-4)GlcNAc(b1-2)Man(a1-3)[GlcNAc(b1-3)Gal(b1-4)GlcNAc(b1-3)Gal(b1-4)GlcNAc(b1-2)Man(a1-6)]Man(b1-4)GlcNAc(b1-4)[Fuc(a1-6)]GlcNAc
# Method in brief: as §1
# [8] = target: GlcNAc(b1-3)Gal(b1-4)GlcNAc(b1-3)Gal(b1-4)GlcNAc(b1-2)[GlcNAc(b1-3)Gal(b1-4)GlcNAc(b1-3)Gal(b1-4)GlcNAc(b1-6)]Man(a1-6)[GlcNAc(b1-3)Gal(b1-4)GlcNAc(b1-3)Gal(b1-4)GlcNAc(b1-2)Man(a1-3)]Man(b1-4)GlcNAc(b1-4)[Fuc(a1-6)]GlcNAc
# Method in brief: as §1
# [9] = target: GlcNAc(b1-3)Gal(b1-4)GlcNAc(b1-3)Gal(b1-4)GlcNAc(b1-3)Gal(b1-4)GlcNAc(b1-2)Man(a1-3)[GlcNAc(b1-3)Gal(b1-4)GlcNAc(b1-3)Gal(b1-4)GlcNAc(b1-3)Gal(b1-4)GlcNAc(b1-2)Man(a1-6)]Man(b1-4)GlcNAc(b1-4)GlcNAc
# Method in brief: as §1
# [10] = target: GlcNAc(b1-3)Gal(b1-4)GlcNAc(b1-3)Gal(b1-4)GlcNAc(b1-3)Gal(b1-4)GlcNAc(b1-2)Man(a1-3)[GlcNAc(b1-3)Gal(b1-4)GlcNAc(b1-3)Gal(b1-4)GlcNAc(b1-3)Gal(b1-4)GlcNAc(b1-2)Man(a1-6)]Man(b1-4)GlcNAc(b1-4)[Fuc(a1-6)]GlcNAc
# Method in brief: as §1
# [11] = target: GlcNAc(b1-3)Gal(b1-4)GlcNAc(b1-3)Gal(b1-4)GlcNAc(b1-3)Gal(b1-4)GlcNAc(b1-2)[GlcNAc(b1-3)Gal(b1-4)GlcNAc(b1-3)Gal(b1-4)GlcNAc(b1-3)Gal(b1-4)GlcNAc(b1-6)]Man(a1-6)[GlcNAc(b1-3)Gal(b1-4)GlcNAc(b1-3)Gal(b1-4)GlcNAc(b1-3)Gal(b1-4)GlcNAc(b1-2)Man(a1-3)]Man(b1-4)GlcNAc(b1-4)[Fuc(a1-6)]GlcNAc
# Method in brief: as §1
# [12] = target: GlcNAc(b1-3)Gal(b1-4)GlcNAc(b1-3)Gal(b1-4)GlcNAc(b1-3)Gal(b1-4)GlcNAc(b1-3)Gal(b1-4)GlcNAc(b1-2)Man(a1-3)[GlcNAc(b1-3)Gal(b1-4)GlcNAc(b1-3)Gal(b1-4)GlcNAc(b1-3)Gal(b1-4)GlcNAc(b1-3)Gal(b1-4)GlcNAc(b1-2)Man(a1-6)]Man(b1-4)GlcNAc(b1-4)GlcNAc
# Method in brief: as §1
# [13] = target: GlcNAc(b1-3)Gal(b1-4)GlcNAc(b1-3)Gal(b1-4)GlcNAc(b1-3)Gal(b1-4)GlcNAc(b1-3)Gal(b1-4)GlcNAc(b1-2)Man(a1-3)[GlcNAc(b1-3)Gal(b1-4)GlcNAc(b1-3)Gal(b1-4)GlcNAc(b1-3)Gal(b1-4)GlcNAc(b1-3)Gal(b1-4)GlcNAc(b1-2)Man(a1-6)]Man(b1-4)GlcNAc(b1-4)[Fuc(a1-6)]GlcNAc
# Method in brief: as §1
# [14] = target: GlcNAc(b1-3)Gal(b1-4)GlcNAc(b1-3)Gal(b1-4)GlcNAc(b1-3)Gal(b1-4)GlcNAc(b1-3)Gal(b1-4)GlcNAc(b1-2)[GlcNAc(b1-3)Gal(b1-4)GlcNAc(b1-3)Gal(b1-4)GlcNAc(b1-3)Gal(b1-4)GlcNAc(b1-3)Gal(b1-4)GlcNAc(b1-6)]Man(a1-6)[GlcNAc(b1-3)Gal(b1-4)GlcNAc(b1-3)Gal(b1-4)GlcNAc(b1-3)Gal(b1-4)GlcNAc(b1-3)Gal(b1-4)GlcNAc(b1-2)Man(a1-3)]Man(b1-4)GlcNAc(b1-4)[Fuc(a1-6)]GlcNAc
# Method in brief: as §1
# [15] = target: GlcNAc(b1-3)Gal(b1-4)GlcNAc(b1-3)Gal(b1-4)GlcNAc(b1-3)GalNAc
# Method in brief: as §1
# [16] = target: GlcNAc(b1-3)Gal(b1-4)GlcNAc(b1-3)GalNAc
# Method in brief: as §1
# [17] = target: GlcNAc(b1-3)Gal(b1-4)GlcNAc(b1-3)[GlcNAc(b1-3)Gal(b1-4)GlcNAc(b1-3)]GalNAc
# Method in brief: as §1
# [18] = target: GlcNAc(b1-3)Gal(b1-4)GlcNAc(b1-6)[Gal(b1-3)]GalNAc
# Method in brief: as §1
# [19] = target: GlcNAc(b1-3)Gal(b1-4)GlcNAc(b1-6)[GlcNAc(b1-3)Gal(b1-3)]GalNAc
# Method in brief: as §1
# [20] = target: GlcNAc(b1-3)Gal(b1-4)GlcNAc(b1-6)[GlcNAc(b1-3)]Gal(b1-4)GlcNAc
# Method in brief: as §1
# GlcNAc(b1-3)GalNAc = target: GlcNAc(b1-3)GalNAc
# Method in brief: as §1
# GlcNAc(b1-3)Man = target: GlcNAc(b1-3)Man
# Method in brief: as §1
# [21] = target: GlcNAc(b1-3)[GlcNAc(b1-4)][GlcNAc(b1-6)]GlcNAc
# Method in brief: as §1
# [22] = target: GlcNAc(b1-3)[GlcNAc(b1-6)]Gal(b1-4)GlcNAc
# Method in brief: as §1
# [23] = target: GlcNAc(b1-3)[GlcNAc(b1-6)]GalNAc
# Method in brief: as §1
# [24] = target: GlcNAc(b1-4)Gal(b1-4)GlcNAc
# Method in brief: as §1
# GlcNAc(b1-4)GlcNAc = target: GlcNAc(b1-4)GlcNAc
# Method in brief: as §1
# [25] = target: GlcNAc(b1-4)GlcNAc(b1-4)GlcNAc
# Method in brief: as §1
# [26] = target: GlcNAc(b1-4)GlcNAc(b1-4)GlcNAc(b1-4)GlcNAc(b1-4)GlcNAc
# Method in brief: as §1
# [27] = target: GlcNAc(b1-4)GlcNAc(b1-4)GlcNAc(b1-4)GlcNAc(b1-4)GlcNAc(b1-4)GlcNAc
# Method in brief: as §1
# [28] = target: GlcNAc(b1-4)[GlcNAc(b1-6)]GalNAc
# Method in brief: as §1
# [29] = target: GlcNAc(b1-6)Gal(b1-4)GlcNAc
# Method in brief: as §1
# GlcNAc(b1-6)GalNAc = target: GlcNAc(b1-6)GalNAc
# Method in brief: as §1
# [30] = target: GlcNAc6S(b1-3)Gal(b1-4)GlcNAc
# Method in brief: as §1
# Kdn(a2-3)Gal(b1-3)GalNAc = target: Kdn(a2-3)Gal(b1-3)GalNAc
# Method in brief: as §1
# Kdn(a2-3)Gal(b1-3)GlcNAc = target: Kdn(a2-3)Gal(b1-3)GlcNAc
# Method in brief: as §1
binder,measurement,setting,value
B1,glycan array binding signal (z-score),GlcNAc(b1-3)Gal(b1-4)Glc,1.23
same,glycan array binding signal (z-score),[1],-0.292
same,glycan array binding signal (z-score),[2],-0.082
same,glycan array binding signal (z-score),[3],0.22
same,glycan array binding signal (z-score),[4],0.655
same,glycan array binding signal (z-score),[5],-0.377
same,glycan array binding signal (z-score),[6],1.6
same,glycan array binding signal (z-score),[7],0.462
same,glycan array binding signal (z-score),[8],-0.054
same,glycan array binding signal (z-score),[9],0.098
same,glycan array binding signal (z-score),[10],-0.233
same,glycan array binding signal (z-score),[11],-0.036
same,glycan array binding signal (z-score),[12],0.104
same,glycan array binding signal (z-score),[13],2.24
same,glycan array binding signal (z-score),[14],-0.034
same,glycan array binding signal (z-score),[15],0.131
same,glycan array binding signal (z-score),[16],-0.166
same,glycan array binding signal (z-score),[17],-0.634
same,glycan array binding signal (z-score),[18],1.56
same,glycan array binding signal (z-score),[19],-0.702
same,glycan array binding signal (z-score),[20],-0.862
same,glycan array binding signal (z-score),GlcNAc(b1-3)GalNAc,-0.378
same,glycan array binding signal (z-score),GlcNAc(b1-3)Man,-0.613
same,glycan array binding signal (z-score),[21],-0.445
same,glycan array binding signal (z-score),[22],0.384
same,glycan array binding signal (z-score),[23],-0.214
same,glycan array binding signal (z-score),[24],-0.123
same,glycan array binding signal (z-score),GlcNAc(b1-4)GlcNAc,-0.2
same,glycan array binding signal (z-score),[25],-0.285
same,glycan array binding signal (z-score),[26],-0.492
same,glycan array binding signal (z-score),[27],-0.255
same,glycan array binding signal (z-score),[28],-0.651
same,glycan array binding signal (z-score),[29],0.315
same,glycan array binding signal (z-score),GlcNAc(b1-6)GalNAc,-0.304
same,glycan array binding signal (z-score),[30],-0.218
same,glycan array binding signal (z-score),Kdn(a2-3)Gal(b1-3)GalNAc,0.499
same,glycan array binding signal (z-score),Kdn(a2-3)Gal(b1-3)GlcNAc,-0.812
